Screen size: about 48,000 compounds; about 550 (1.1%) were called active. About 4% were inconclusive and are not listed. No stated cut-off is given here; in the data, active means potency below about 15 µM; inconclusive means mostly about 16 µM to 33 µM; inactive means weaker than that. The list shows a part of the results.
Potency means the concentration at half of the fitted maximal effect.

Chain of UniProt P04062 (P04062 whole entry, looked up): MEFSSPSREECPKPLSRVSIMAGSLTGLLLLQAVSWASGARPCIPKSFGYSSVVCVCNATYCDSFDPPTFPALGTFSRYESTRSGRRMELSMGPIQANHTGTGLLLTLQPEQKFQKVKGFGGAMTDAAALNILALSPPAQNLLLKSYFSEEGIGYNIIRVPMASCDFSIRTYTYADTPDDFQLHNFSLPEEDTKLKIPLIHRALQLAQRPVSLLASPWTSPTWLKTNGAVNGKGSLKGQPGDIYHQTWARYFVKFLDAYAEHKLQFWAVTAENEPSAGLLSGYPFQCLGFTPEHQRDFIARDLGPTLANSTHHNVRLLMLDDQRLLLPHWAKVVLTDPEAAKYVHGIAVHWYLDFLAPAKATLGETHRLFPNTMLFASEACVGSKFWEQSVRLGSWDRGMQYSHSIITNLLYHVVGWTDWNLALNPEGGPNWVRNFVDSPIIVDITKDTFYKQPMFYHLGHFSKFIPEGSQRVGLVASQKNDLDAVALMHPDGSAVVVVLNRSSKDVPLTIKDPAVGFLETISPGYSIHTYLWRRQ

This assay has as its target Lysosomal acid glucosylceramidase (Homo sapiens) (UniProt P04062). Nature of the assay: Glucocerebrosidase.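 Further: the screen sought inhibitors.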 Conditions: purified enzyme, resorufin glucoside fluorescence (screen aimed at inhibitors), 20 min; series mostly up to 77 µM. In outline:
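Normal human glucocerebrosidase (0.2 nM final) was assayed with resorufin β-D-glucopyranoside (30 uM final) in 50mM citric acid/KH2PO4, 10mM sodium taurocholate, 0.01% tween-20, pH 5.9. Compounds were titrated; fluorescence (Ex 548, Em 600) read after 20 min at RT.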
With `COC(=O)c1ccc(N/C(C)=C/C(=O)c2ccc(C)o2)cc1`, the Potency was inactive: > 76.9 µM.
In the case of `O=C(CCOc1ccccc1)OCC(=O)c1cc2ccccc2o1`, the Potency is inactive: > 76.9 µM.
To `CCc1ccccc1NC(=O)C(CC)Sc1nc2cc3c(cc2c(=O)n1Cc1ccco1)OCO3` (stereo unspecified) belongs inactive: > 76.9 µM; to `CC1CCN(c2ccc(C(=O)O)cc2)CC1`, inactive: > 76.9 µM.
The figure for `Cc1cc(=O)c2n(Cc3ccccc3Cl)nc[n+]2[nH]1` is inactive: > 76.9 µM; for `O=C(NCCc1ccccc1)c1noc2c1CCc1ccccc1-2` it is inactive: > 76.9 µM.
For `CCN(CC)c1ccc(NC(=O)c2cc(OC)cc(OC)c2)c(C)c1`, the Potency is inactive: > 76.9 µM.
Take `Cc1ccc(C)c2[nH]c(=O)c(CN(CCCN(C)C)C(=O)NCc3ccccc3)cc12`: the Potency is inactive: > 76.9 µM.
To `COCCNC(=O)c1cc2c(=O)n3cccc(C)c3nc2n(Cc2ccncc2)c1=N` belongs inactive: > 76.9 µM; to `CCOC(=O)C1CCCN(C(=O)CCNS(=O)(=O)c2ccc3c(c2)CCC(=O)N3)C1` (stereo unspecified), inactive: > 76.9 µM; to `COCC(=O)Nc1nc(-c2ccccc2)ns1`, inactive: > 76.9 µM.
The figure for `Cc1ccc(C)c(/C(O)=C2\C(=O)C(=O)N(Cc3cccnc3)C2c2cccnc2)c1` (stereo unspecified) is inactive: > 76.9 µM.
To `CC(CN1CCCC1)OC(=O)COc1ccccc1` (stereo unspecified) belongs inactive: > 76.9 µM; to `CCOCCCNC(=O)C1CCN(C(=O)Nc2ccc(Cl)cc2)CC1`, inactive: > 76.9 µM.
For the molecule `CN(c1ccccc1)S(=O)(=O)c1cccc(C(=O)N2CCN(c3ccccn3)CC2)c1`, the Potency was inactive: > 76.9 µM.
For `Cc1cc(C(=O)Nc2nnc(C3CCCCC3)s2)no1`, the Potency is inactive: > 76.9 µM.
For the molecule `Cc1csc(NC(=O)c2cnccn2)n1`, the Potency was inactive: > 76.9 µM.
The figure for `CCc1[nH]c(C)c(C(C)=O)c1C` is inactive: > 76.9 µM; for `O=C(CSc1nnc(COc2ccc(F)cc2)o1)N1c2ccccc2CCc2ccccc21` it is inactive: > 76.9 µM; for `CC1CCN(C(=O)COC(=O)c2n[nH]c3ccccc23)CC1` it is inactive: > 76.9 µM.
With `CCOc1ccc2nc(NCCCNS(=O)(=O)c3ccccc3)c(C#N)cc2c1`, the Potency was inactive: > 76.9 µM.
The figure for `COc1nc(Nc2ccc(-c3nc4ccccc4o3)cc2)nc(N2CCOCC2)n1` is inactive: > 76.9 µM; for `CN(C(=O)c1ccncc1)c1nnc(-c2ccccn2)s1` it is inactive: > 76.9 µM.
The figure for `O=c1[nH]c2ccccc2cc1-c1noc(-c2cccnc2)n1` is inactive: > 76.9 µM; for `O=C(NCc1ccco1)c1ccc(Cl)c(S(=O)(=O)N2CCOCC2)c1` it is inactive: > 76.9 µM.
In the case of `O=C1CC(N2CCN(c3ccccc3Cl)CC2)C(=O)N1c1cccc(F)c1` (stereo unspecified), the Potency is inactive: > 76.9 µM.
The figure for `COCCCN1C(=O)C(=O)/C(=C(/O)c2ccc3c(c2)OCCO3)C1c1ccc(C(=O)OC)cc1` (stereo unspecified) is inactive: > 76.9 µM.
To `COc1ccc(S(=O)(=O)N2CCCC(C(=O)NCc3ccccn3)C2)cc1` (stereo unspecified) belongs inactive: > 76.9 µM; to `O=C1c2ccccc2C(=O)N1Cc1ccco1`, inactive: > 76.9 µM; to `C1CCN=C(Nc2nn[nH]n2)CC1`, inactive: > 76.9 µM.
Regarding `Cc1cc2c(cc1C)NC1(C(=O)Nc3ccccc31)C1=C(CC(C)(C)CC1=O)N2` (stereo unspecified), the Potency was inactive: > 76.9 µM.
Take `Cc1c(-n2cc(C(=O)c3ccccc3O)cc(C#N)c2=O)c(=O)n(-c2ccccc2)n1C`: the Potency was inactive: > 76.9 µM.
With `CCCNS(=O)(=O)c1ccc(CCC(=O)NCc2cccnc2)cc1`, the Potency was inactive: > 76.9 µM.
The figure for `CC(C)(C)c1ccc2c(c1)N(CC(=O)O)C(=O)CO2` is inactive: > 76.9 µM; for `O=C(CSc1nc2ccccc2n1CC(=O)N1CCCC1)NCc1ccc2c(c1)OCO2` it is inactive: > 76.9 µM.
Consider `C=CCn1nnnc1SCC(=O)Nc1ccccc1C(=O)OC`, for which the Potency was inactive: > 76.9 µM.
For the molecule `CCNC(=O)N1c2ccc(OC)cc2C(C)=CC1(C)C`, the Potency is inactive: > 76.9 µM.
As to `COc1cc2c(cc1OC)/C(=C/C#N)NC(C)(C)C2`, the Potency is inactive: > 76.9 µM.
The figure for `COc1ccc2c(c1)C(=NO)c1cc(OC)ccc1-2` is inactive: > 76.9 µM; for `O=C(c1ccco1)N1CCN(C(=O)c2ccccc2Oc2ccccc2)CC1` it is inactive: > 76.9 µM; for `Clc1ccc(Cn2cccc2C2=NCCO2)cc1` it is inactive: > 76.9 µM.
The figure for `CN1CCN(Cc2nc(N)nc(Nc3ccc4c(c3)OCCO4)n2)CC1` is inactive: > 76.9 µM; for `O=C(c1ccccc1)N1CCCCC(S(=O)(=O)c2ccccc2)C1=O` (stereo unspecified) it is inactive: > 76.9 µM; for `COC(=O)n1c(=S)oc2cc(Cl)ccc21` it is inactive: > 76.9 µM.
With `CN(C)c1ccc(NC(=O)c2cc3c(=O)n4ccccc4nc3n2C)cc1`, the Potency was inactive: > 76.9 µM.
Take `CCOC(=O)CSC1=Nc2ccccc2C2=NC(CC(=O)NCc3cccs3)C(=O)N12` (stereo unspecified): the Potency was inactive: > 76.9 µM.
The figure for `COc1cc(S(=O)(=O)NC2CCCC2)ccc1Cl` is inactive: > 76.9 µM.
To `N#CC1=C(c2ccccc2)N=P(N2CCOCC2)(N2CCOCC2)N=C1N1CCOCC1` belongs inactive: > 76.9 µM; to `CCN(CC)CCNC(=O)c1nn(-c2ccc(C)cc2)c(=O)c2c1c1ccccc1n2C`, inactive: > 76.9 µM.
To `O=C(CSCc1nc2ccccc2[nH]1)N1CCN(c2cccc(Cl)c2)CC1` belongs inactive: > 76.9 µM; to `CC(=O)c1c(C)n([O-])c2cc(C)ccc2[n+]1=O`, inactive: > 76.9 µM; to `CC1=C(C)C(=O)NC(Nc2nc(C)c3cc(C)cc(C)c3n2)N1` (stereo unspecified), inactive: > 76.9 µM.
On to `C=C(C)CSc1nnc([C@@H]2CCCN2C(=O)OC(C)(C)C)o1`, for which the Potency is inactive: > 76.9 µM.
The figure for `O=P(OC1CCS(=O)(=O)C1)(c1ccccc1)c1ccccc1` (stereo unspecified) is inactive: > 76.9 µM.
For `O=C(CCS(=O)(=O)Cc1ccccc1F)N1CCc2ccccc2C1`, the Potency is inactive: > 76.9 µM.
The figure for `CC1(C)OC(=O)N(CCc2ccccc2)C1(C)O` (stereo unspecified) is inactive: > 76.9 µM.
On to `COC(=O)c1ccc(C)c(NC(=O)Cn2cnc3ccccc3c2=O)c1`, for which the Potency was inactive: > 76.9 µM.
To `COCCCNC(=O)c1cc(C)nc2ccc(F)cc12` belongs inactive: > 76.9 µM.
To `Cc1ccccc1C(=O)N1CCC(C(=O)Nc2ccc(F)cc2)CC1` belongs inactive: > 76.9 µM.
Consider `CC1C(O)=C(c2nc3ccccc3[nH]2)C(=N)N1c1ccccc1` (stereo unspecified), for which the Potency is inactive: > 76.9 µM.
With `CCN(C1CCS(=O)(=O)C1)S(=O)(=O)c1cccs1` (stereo unspecified), the Potency was inactive: > 76.9 µM.
On to `Cc1c(C(=O)NCc2cccnc2)oc2ccc(S(=O)(=O)N3CCCCCC3)cc12`, for which the Potency was inactive: > 76.9 µM.
To `Cc1csc(NC(=O)c2nc3nccc(C)n3n2)n1` belongs inactive: > 76.9 µM.
To `COCCn1c(SCC(=O)NC(=O)NCc2ccccc2)nc2ccccc21` belongs inactive: > 76.9 µM; to `O=C(c1cccc(F)c1)N1CCN(c2cccc(C(F)(F)F)c2)CC1`, inactive: > 76.9 µM; to `Cc1ccc(S(=O)(=O)Cn2nnnc2CN2CCN(Cc3ccc4c(c3)OCO4)CC2)cc1`, inactive: > 76.9 µM.
The figure for `Cc1cc(COc2ccccc2OCc2cc(C)no2)on1` is inactive: > 76.9 µM; for `CCC1(C(=O)OC)NC(c2cccc(F)c2)C2C(=O)N(C)C(=O)C21` (stereo unspecified) it is inactive: > 76.9 µM.
For the molecule `CCOc1ccc2[nH]c(=O)c(CN(CC3COCCO3)C(=O)C3CC3)cc2c1` (stereo unspecified), the Potency was inactive: > 76.9 µM.
To `O=C(CCNS(=O)(=O)c1cccc2nsnc12)N1CCc2ccccc21` belongs inactive: > 76.9 µM.
Turning to `CCOC(=O)C1=C(C)N=C2SC(C)C(=O)N2C1/C=C/c1ccccc1OC` (stereo unspecified), the Potency was inactive: > 76.9 µM.
To `Cc1ccc(CCNC(=O)C2CCC(=O)N2C(C)C)cc1` (stereo unspecified) belongs inactive: > 76.9 µM; to `COc1cccc(C(=O)OCc2ccccc2C#N)c1O`, inactive: > 76.9 µM; to `CC1=C(C#N)C(NC(=O)c2ccco2)(C(F)(F)F)C(=O)N1` (stereo unspecified), inactive: > 76.9 µM.
As to `COc1ccc(-c2noc(CCCC(=O)NCc3ccco3)n2)cc1OC`, the Potency was inactive: > 76.9 µM.
To `COCCCNC(=O)CCN1C(=O)COc2ccccc21` belongs inactive: > 76.9 µM.
To `COC(=O)CSc1nnc([C@H](CC(C)C)NC(=O)OC(C)(C)C)o1` belongs inactive: > 76.9 µM.
To `Cc1sc2nc(SCC(=O)Nc3c(C)n(C)n(-c4ccccc4)c3=O)n(C)c(=O)c2c1C` belongs inactive: > 76.9 µM; to `Cc1cc(C)n(CCc2nc(-c3cccs3)cs2)n1`, inactive: > 76.9 µM; to `CCOC(=O)c1ccc(NC(=O)C2CCCO2)cc1` (stereo unspecified), inactive: > 76.9 µM.
With `COc1ccccc1N1CCN(C2=NS(=O)(=O)c3ccccc32)CC1`, the Potency was inactive: > 76.9 µM.
With `CCOCCCNC(=O)c1ccccc1SC`, the Potency was inactive: > 76.9 µM.
To `COC(=O)C(C)n1cnc2c(cnn2-c2ccc(Cl)cc2)c1=O` (stereo unspecified) belongs inactive: > 76.9 µM; to `COc1cc(C2=NOC(C(=O)Nc3ccc(C)cc3)C2)cc(OC)c1OC` (stereo unspecified), inactive: > 76.9 µM; to `Cc1cc(C)n(-c2ccn(Cc3ccc(Cl)cc3Cl)c(=O)n2)n1`, inactive: > 76.9 µM.
The figure for `O=C(c1ccc2nc(N3CCOCC3)sc2c1)N1CCC2(CC1)OCCO2` is inactive: > 76.9 µM.
For `CCn1cc(S(=O)(=O)CC(=O)Nc2ccc(C)cc2)c2ccccc21`, the Potency was inactive: > 76.9 µM.
The figure for `COCc1c(C(N)=O)nnn1-c1nonc1N` is inactive: > 76.9 µM; for `CC1(C(=O)NC2CCCCCCC2)CCC(=O)N1CCN1CCOCC1` (stereo unspecified) it is inactive: > 76.9 µM.
With `Cc1nn(Cc2ccc(Cl)c(Cl)c2)c(C)c1NC(=O)c1cc(-c2ccc3c(c2)OCO3)on1`, the Potency was inactive: > 76.9 µM.
To `Cn1c(CNC(=O)c2ccco2)nnc1SCC(=O)N1c2ccccc2Sc2ccccc21` belongs inactive: > 76.9 µM.

(Values after PubChem BioAssay AID360 (National Center for Advancing Translational Sciences (NCATS), 2006).)
